# Measurements taken from the supplement of paper PMC9135407.
# Values joined by “and” are separate entries in the source; they are usually repeats but may differ in a detail not shown here. Equal entries are not always repeated. Structures can show the parent of a compound that is named as a salt. Among all 5,800 compounds or so, about 620 (11%) showed activity.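 Rule for the calls: active = score above a cut-off or among the top three wells of a plate; in these data no inactive exceeds 0.85.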 The list shows a part of the results, in another mix than the full data.
# Tested on: primary human hepatic stellate cells (donor 1)
# Assay: scaled lipid accumulation score (0 = DMSO-like, 1 = nortriptyline-like); higher = stronger HSC inactivation (lipid re-accumulation), active = hit call of the paper
# Details: 48 h
# [1] = library stock concentration: 1 mM
# [2] = library stock concentration: 10 mM
# [3] = library stock concentration: 2 mM
# [4] = library stock concentration: 80 uM
# [5] = library stock concentration: 400 uM
# [6] = library stock concentration: 3.33 mM
compound,measurement,setting,value
CC(C)c1ccc2c(c1)CC[C@H]1[C@](C)(CN)CCC[C@]21C.Cl [Leelamine (hydrochloride)],scaled lipid accumulation score,[1],active: 0.297
CN1[C@@H]2CC[C@H]1CC(OC(=O)c1c[nH]c3ccccc13)C2 (some centres undefined) [3-Tropanyl-indole-3-carboxylate hydrochloride],scaled lipid accumulation score,[2],inactive: 0.561
CN1CCN(Cc2ccc(-c3cnc4[nH]cc(-c5ccc6[nH]ccc6c5)c4c3)cc2)CC1,scaled lipid accumulation score,[3],active: 1.3
CC[C@]1(O)C[C@H]2CN(CCc3c([nH]c4ccccc34)[C@@](C(=O)OC)(c3cc4c(cc3OC)N(C)[C@H]3[C@@](O)(C(=O)OC)[C@H](OC(C)=O)[C@]5(CC)C=CCN6CC[C@]43[C@@H]65)C2)C1.O=S(=O)(O)O [Vinblastine sulfate],scaled lipid accumulation score,[2],active: 1.67
Nc1[nH]nc2nnc(-c3c(-c4ccccc4)nn4ccccc34)cc12,scaled lipid accumulation score,[4],inactive: 0.061
same,scaled lipid accumulation score,[5],inactive: 0.076
same,scaled lipid accumulation score,[3],inactive: ≤ -0.009
same,scaled lipid accumulation score,[6],inactive: ≤ 0
same,scaled lipid accumulation score,[2],inactive: ≤ -0.001 and inactive: 0.026
O=C1CN(/N=C/c2ccc(-c3ccc([N+](=O)[O-])cc3)o2)C(=O)N1 [Dantrolene sodium salt],scaled lipid accumulation score,,inactive: 0.207
"O=C1CN(/N=C/c2ccc(-c3ccc([N+](=O)[O-])cc3)o2)C(=O)N1 [Dantrolene, sodium salt]",scaled lipid accumulation score,[2],inactive: ≤ 0
O=C1CN(/N=C/c2ccc(-c3ccc([N+](=O)[O-])cc3)o2)C(=O)N1 [Dantrolene sodium],scaled lipid accumulation score,library stock concentration: 5.9 mM,inactive: ≤ 0
same,scaled lipid accumulation score,[2],inactive: ≤ -0.07
O=C1CN(/N=C/c2ccc(-c3ccc([N+](=O)[O-])cc3)o2)C(=O)N1 [Dantrolene?Sodium],scaled lipid accumulation score,[2],inactive: ≤ 0
CC(C)OC(=O)CCC/C=C\C[C@@H]1[C@@H](/C=C/[C@@H](O)COc2cccc(C(F)(F)F)c2)[C@H](O)C[C@@H]1O,scaled lipid accumulation score,[2],inactive: ≤ 0
CCOC(=O)n1ccn(C)c1=S [Carbimazole],scaled lipid accumulation score,,inactive: 0.035
same,scaled lipid accumulation score,[6],inactive: ≤ 0
same,scaled lipid accumulation score,[2],inactive: 0.044 and inactive: ≤ -0.027
COc1cc(O)c2c(c1)C(=O)c1cc(C)cc(O)c1C2=O [Rheochrysidin],scaled lipid accumulation score,[6],inactive: 0.035
same,scaled lipid accumulation score,[2],inactive: ≤ 0
CN1CCN2c3ccccc3Cc3ccccc3C2C1.Cl (centres undefined) [Mianserin hydrochloride],scaled lipid accumulation score,[2],active: 0.869
COc1cc(N2CCC(N)CC2)ccc1Nc1ncc(Cl)c(-c2c[nH]c3ccccc23)n1,scaled lipid accumulation score,[6],inactive: 0.146
same,scaled lipid accumulation score,[2],inactive: 0.238
CC1(O)CCC(C(C)(C)O)CC1 (centres undefined),scaled lipid accumulation score,[2],inactive: ≤ 0
CC1(C)S[C@@H]2[C@H](NC(=O)[C@H](C(=O)O)c3ccsc3)C(=O)N2[C@H]1C(=O)O,scaled lipid accumulation score,[2],inactive: ≤ 0
CC1(C)S[C@@H]2[C@H](NC(=O)[C@H](C(=O)O)c3ccsc3)C(=O)N2[C@H]1C(=O)O [Ticarcillin sodium],scaled lipid accumulation score,,inactive: ≤ 0
same,scaled lipid accumulation score,[6],inactive: ≤ 0
same,scaled lipid accumulation score,[2],inactive: ≤ -0.001
COc1c/c(=C2\C=c3ccccc3=N2)[nH]/c1=C\c1[nH]c(C)cc1C [Obatoclax Mesylate (GX15-070)],scaled lipid accumulation score,[6],inactive: 0.602
same,scaled lipid accumulation score,[2],inactive: 0.617
Cc1cc(NS(=O)(=O)c2ccc(N)cc2)no1 [Sulfamethoxazole],scaled lipid accumulation score,,inactive: 0.056
same,scaled lipid accumulation score,[6],inactive: ≤ 0
same,scaled lipid accumulation score,library stock concentration: 7.9 mM,inactive: ≤ 0
same,scaled lipid accumulation score,[2],inactive: ≤ 0 and inactive: 0.06
CN[C@@H]1[C@@H](O)[C@@H](O[C@@H]2[C@@H](O)[C@H](O[C@H]3OC(CN)=CC[C@H]3N)[C@@H](N)C[C@H]2N)OC[C@]1(C)O [Sisomicin sulfate],scaled lipid accumulation score,,inactive: 0.028
same,scaled lipid accumulation score,[2],inactive: ≤ 0
O=C(c1ccc2c(c1)OCCO2)N1CCCCC1,scaled lipid accumulation score,[2],inactive: ≤ -0.07
COc1cc(C(=O)OCCCN2CCCN(CCCOC(=O)c3cc(OC)c(OC)c(OC)c3)CC2)cc(OC)c1OC.Cl.Cl [Dilazep dihydrochloride],scaled lipid accumulation score,[2],active: 1.06
OCCN1CCN(CCCN2c3ccccc3Sc3ccc(Cl)cc32)CC1,scaled lipid accumulation score,[2],active: 0.962
Cc1nc2sccn2c(=O)c1CCN1CCC(=C(c2ccccc2)c2ccc(F)cc2)CC1,scaled lipid accumulation score,[4],inactive: ≤ -0.001
same,scaled lipid accumulation score,[5],inactive: ≤ -0.001
same,scaled lipid accumulation score,[3],inactive: ≤ -0.001
same,scaled lipid accumulation score,[2],inactive: 0.463 and inactive: 0.19
CC(C)(C)C(=O)C(Oc1ccc(Cl)cc1)n1ccnc1 (centres undefined) [Climbazole],scaled lipid accumulation score,[6],inactive: ≤ 0
same,scaled lipid accumulation score,library stock concentration: 6.8 mM,inactive: ≤ 0
same,scaled lipid accumulation score,[2],inactive: ≤ -0.001
O=C(NCCCNc1nc(Nc2cccc(NC(=O)N3CCCC3)c2)ncc1I)c1cccs1,scaled lipid accumulation score,[2],active: 1.2
Cc1ccccc1OCC(O)CO (centres undefined) [Mephenesin],scaled lipid accumulation score,,inactive: 0.035
same,scaled lipid accumulation score,[2],inactive: ≤ 0
same,scaled lipid accumulation score,library stock concentration: 11 mM,inactive: ≤ 0
"CCCCCCC(=O)SC[C@H](COP(=O)([O-])OCC[N+](C)(C)C)SC(=O)CCCCCC [1,2-bis(heptanoylthio) Glycerophosphocholine]",scaled lipid accumulation score,[1],inactive: ≤ 0
O=C1CN(/N=C/c2ccc([N+](=O)[O-])o2)C(=O)N1 [Nitrofurantoin],scaled lipid accumulation score,,inactive: ≤ 0
same,scaled lipid accumulation score,[2],inactive: ≤ 0
O=C1CN(/N=C/c2ccc([N+](=O)[O-])o2)C(=O)N1,scaled lipid accumulation score,[2],inactive: ≤ 0
CS(=O)(=O)c1ccc(-c2cc(Br)sc2-c2ccc(F)cc2)cc1,scaled lipid accumulation score,[1],inactive: ≤ 0
same,scaled lipid accumulation score,[2],inactive: ≤ 0 and inactive: ≤ -0.006
CC(C)N(CCCNC(=O)Nc1ccc(C(C)(C)C)cc1)C[C@H]1O[C@@H](n2cc(Br)c3c(N)ncnc32)[C@H](O)[C@@H]1O,scaled lipid accumulation score,[6],inactive: 0.805
CC1=C(CC(=O)O)c2cc(F)ccc2/C1=C\c1ccc(S(C)(=O)=O)cc1 [Sulindac sulfone],scaled lipid accumulation score,[2],inactive: ≤ 0
CCOC(=O)C1=C(COCCN)NC(C)=C(C(=O)OC)C1c1ccccc1Cl.O=S(=O)(O)c1ccccc1 (centres undefined) [Amlodipine besylate],scaled lipid accumulation score,[2],active: 1.02
C[C@H](N)[C@H](O)c1cccc(O)c1 [Metaraminol bitartrate],scaled lipid accumulation score,,inactive: ≤ 0
same,scaled lipid accumulation score,library stock concentration: 6.3 mM,inactive: ≤ 0
same,scaled lipid accumulation score,[2],inactive: ≤ -0.027
CCN(CC)CCNC(=O)c1c(C)[nH]c(/C=C2\C(=O)Nc3ccc(F)cc32)c1C.O=C(O)C[C@H](O)C(=O)O,scaled lipid accumulation score,[3],active: 1.66
COc1ccc(C(=O)/C(Br)=C\C(=O)O)cc1 [Bromebric acid],scaled lipid accumulation score,library stock concentration: 7 mM,inactive: ≤ -0.006
CCN(CC)CCOC(=O)C(Cc1cccc2ccccc12)CC1CCCO1 (centres undefined) [Nafronyl oxalate],scaled lipid accumulation score,,inactive: 0.312
same,scaled lipid accumulation score,[2],inactive: ≤ -0.027
NC(=O)N1C(=O)/C(=C(\O)c2cccs2)c2cc(Cl)ccc21 [Tenidap],scaled lipid accumulation score,[2],inactive: ≤ -0.001
CC/C=C\C/C=C\C/C=C\C/C=C\C/C=C\CCCC(=O)O[C@H](COCCCCCCCCCCCCCCCC)COP(=O)([O-])OCC[N+](C)(C)C [Eicosapentaenoyl PAF C-16],scaled lipid accumulation score,[1],inactive: ≤ 0
CC1(C)S[C@@H]2[C@H](NC(=O)C(C(=O)O)c3ccccc3)C(=O)N2[C@H]1C(=O)O (some centres undefined) [Carbenicillin disodium],scaled lipid accumulation score,[6],inactive: ≤ 0
same,scaled lipid accumulation score,library stock concentration: 4.7 mM,inactive: ≤ -0.001
same,scaled lipid accumulation score,[2],inactive: ≤ -0.001 and inactive: ≤ 0
Cc1cc(OCCCS(C)(=O)=O)cc(C)c1-c1cccc(COc2ccc3c(c2)OC[C@H]3CC(=O)O)c1,scaled lipid accumulation score,[6],inactive: 0.029
same,scaled lipid accumulation score,[2],inactive: 0.138
C=C[C@@]1(C)CC(=O)[C@]2(O)[C@@]3(C)[C@@H](O)CCC(C)(C)[C@@H]3[C@H](O)[C@H](OC(C)=O)[C@@]2(C)O1 [Colforsin],scaled lipid accumulation score,library stock concentration: 4.9 mM,inactive: ≤ 0
same,scaled lipid accumulation score,[2],inactive: ≤ -0.027
C=C[C@@]1(C)CC(=O)[C@]2(O)[C@@]3(C)[C@@H](O)CCC(C)(C)[C@@H]3[C@H](O)[C@H](OC(C)=O)[C@@]2(C)O1 [Forskolin],scaled lipid accumulation score,[6],inactive: ≤ 0
same,scaled lipid accumulation score,[2],inactive: ≤ 0 and inactive: ≤ -0.07 and inactive: 0.019
same,scaled lipid accumulation score,library stock concentration: 12.2 mM,inactive: ≤ -0.012
CN(Cc1cnc2nc(N)nc(N)c2n1)c1ccc(C(=O)NC(CCC(=O)O)C(=O)O)cc1 (racemic) [Methotrexate(+/-)],scaled lipid accumulation score,library stock concentration: 4.4 mM,inactive: 0.043
same,scaled lipid accumulation score,[2],inactive: ≤ 0
O=C(CCCCCN1C(=O)c2cccc3cccc(c23)C1=O)NO [Scriptaid],scaled lipid accumulation score,[6],inactive: 0.343
same,scaled lipid accumulation score,[2],inactive: 0.57 and inactive: 0.396
Cc1ccc(NC2=CC(=O)c3sc(C)nc3C2=O)cc1 [Ryuvidine],scaled lipid accumulation score,[2],active: 0.904
C/C(=C(\CCOP(=O)(O)O)SC(=O)c1ccccc1)N(C=O)Cc1cnc(C)nc1N [Benfotiamine],scaled lipid accumulation score,,inactive: ≤ 0
same,scaled lipid accumulation score,[2],inactive: ≤ 0
COc1cc2/c(=N/c3ccc(Br)cc3F)nc[nH]c2cc1OCC1CCN(C)CC1 [Vandetanib (ZD6474)],scaled lipid accumulation score,[2],inactive: 0.754
COc1cc2/c(=N/c3ccc(Br)cc3F)nc[nH]c2cc1OCC1CCN(C)CC1 [Vandetanib],scaled lipid accumulation score,[4],inactive: 0.09
same,scaled lipid accumulation score,[5],inactive: 0.381
"COc1cc2/c(=N/c3ccc(Br)cc3F)nc[nH]c2cc1OCC1CCN(C)CC1 [Vandetanib  (ZD6474, Zactima) (10 mM)]",scaled lipid accumulation score,[2],inactive: 0.445
Nc1c2c(nc3ccccc13)CCCC2 [Tacrine hydrochloride],scaled lipid accumulation score,[2],inactive: 0.064
Nc1c2c(nc3ccccc13)CCCC2,scaled lipid accumulation score,library stock concentration: 9.7 mM,inactive: 0.039
Nc1c2c(nc3ccccc13)CCCC2 [Tacrine (hydrochloride)],scaled lipid accumulation score,[1],inactive: 0.026
"Nc1c2c(nc3ccccc13)CCCC2 [9-Amino-1,2,3,4-tetrahydroacridine hydrochloride]",scaled lipid accumulation score,[2],inactive: 0.401
CCCCC(CC)COC(=O)C(C#N)=C(c1ccccc1)c1ccccc1 (centres undefined),scaled lipid accumulation score,[2],inactive: 0.062
